Experimental data as given in PubChem BioAssay AID1347417 (National Center for Advancing Translational Sciences (NCATS), 2020).
The whole screen tested about 120,000 compounds, of which about 5,300 (4.4%) were called active. This list was built around the results that the source calls inconclusive (neither active nor inactive); the mix of calls is not that of the screen. The call rests on the fitted dose curve; in most records, active means well fitted inhibition curve with a large enough effect; inconclusive means small, poorly fitted or top-dose-only effect; inactive means no such curve, though single readings can be large or run the other way. Potencies beside an inconclusive call are fits to weak or partial responses and may not hold up.

Test: qHTS Primary assay for Inhibitors of Plasmodium falciparum Dd2 growth in vitro; further: nearly all actives have a fitted effect of over 65% in size;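 on activity, negative = inhibition: plate controls were DMSO vehicle for no effect and reference drug for full effect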
Details: P. falciparum Dd2 growth, SYBR Green, 72 h; activity, negative = inhibition: at 28.9 µM (top of the series) unless noted; series mostly up to 28.9 µM
In short: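 Infected erythrocytes (Dd2, 0.3% parasitemia, 2.5% hematocrit final) are added to compound in RPMI-1640/Albumax II medium, grown 72 h at 37C in low oxygen, then lysed with saponin/Triton-X containing SYBR Green and read by fluorescence.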
Potency means the concentration at half of the fitted maximal effect; tags describe the fitted curve by direction and shape.

Row | Compound | Potency | activity, negative = inhibition
1 | O=S(=O)(c1ccccc1)N1CCC2(CC1)CC(OCC1CC1)CCO2 (configuration not stated) | inactive | –
2 | Cc1ccc(N2CCC(NC(=O)Cc3ccccc3C)C2=O)cc1C (configuration not stated) | inactive | –
3 | Cc1ccc(C(=O)N2CCOC(c3ccc(Cl)c(Cl)c3)C2)c(=O)n1C (configuration not stated) | inactive | –
4 | CN1C(=O)[C@@H]2C[C@@H](CN2Cc2ccc(OC(F)(F)F)cc2)Oc2ccccc21 | inconclusive: 11.2 µM [inhibitor, partial curve] | –
5 | COc1cccc(Nc2ccc3c(n2)C(C)(C(=O)NC(C)C)CN(C)C3)c1 (configuration not stated) | active: 2.51 µM | –
6 | CCn1ncc(N2CCCC(CC(=O)N3CCN(c4ccccc4)CC3)C2)cc1=O (configuration not stated) | inactive | –
7 | O=C(COc1ccc(F)cc1)N1CCOc2ccc(CN3CCc4ccccc4C3)cc2C1 | inconclusive: 0.398 µM [inhibitor, partial curve, poor fit] | –
8 | COc1ccc(-n2cc(-c3ccnc(N(C)Cc4cnccn4)n3)cn2)cc1 | inconclusive: 12.6 µM [inhibitor, single point] | –
9 | COc1ccc(N2C(=O)C3(CCCCC3)C2C(=O)N2CCN(C(C)C)CC2)cc1 (configuration not stated) | inactive | –
10 | CCCNC(=O)N1C[C@@H](Oc2ccccc2)C[C@@H]1C(=O)NCCOC | inactive | –
11 | CN(C)c1cccc(-c2nccc3c(=O)cc(-c4cn[nH]c4)oc23)c1 | inconclusive: 0.447 µM [inhibitor, full curve] | –
12 | Cc1cc(C)cc(C(=O)N2CCC(n3cc(-c4nc(C)no4)nn3)CC2)c1 | inconclusive: 3.98 µM [inhibitor, full curve, poor fit] | –
13 | COc1cc(-c2nc(-c3c(C)noc3C)cc3c2cc(C)n3CCN(C)C)ccn1 | inconclusive: 2 µM [inhibitor, partial curve] | –
14 | Cn1cc(CN2CCN3CCCC3C2)c(-c2ccc(C3CCCCC3)cc2)n1 (configuration not stated) | active: 8.91 µM | –
15 | O=C(NCCc1ccc(Cl)cc1)c1nc(-c2cccc(F)c2)c2cnccn12 | inconclusive: 2.51 µM [inhibitor, partial curve, poor fit] | –
16 | O=C(c1ccccn1)N1CCCC(n2cc(-c3nc(-c4ccccc4)no3)nn2)C1 (configuration not stated) | inconclusive: 3.98 µM [inhibitor, single point] | –
17 | Cc1ccccc1NS(=O)(=O)c1ccc2[nH]cc(C(=O)NC(C)c3ccccc3)c(=O)c2c1 (configuration not stated) | inconclusive: 11.2 µM [inhibitor, single point] | –
18 | COc1ccc(-c2noc(-c3nc(Cc4ccc(F)cc4)no3)n2)cc1 | inactive | –
19 | COc1ccc(C2Cn3nnc(-c4noc(CC5CCCCC5)n4)c3CO2)cc1 (configuration not stated) | inactive | –
20 | C/C(=C\c1ccccc1)CN1CCC2(Cc3ccccc3CNC2=O)C1 (configuration not stated) | inconclusive: 12.6 µM [inhibitor, single point] | –
21 | Cc1ccc(-c2cc(N3CCCN(C(=O)c4nn(C)c5ccccc45)CC3)n[nH]2)cc1C | inconclusive: 2.24 µM [inhibitor, single point] | –
22 | CN1CCN(C(=O)c2cccc3c2NCCC3)CC12CCNC(=O)CC2 (configuration not stated) | inactive | –
23 | CCN(C(=O)Cn1c(=O)n(CC2CCC(C(=O)NC)CC2)c(=O)c2sccc21)c1ccccc1 (configuration not stated) | inconclusive: 11.2 µM [inhibitor, single point] | –

Row | Compound | Potency | activity, negative = inhibition
24 | O=C(c1ccc(F)c(F)c1)N1C[C@@H](CO)[C@H](c2ccccn2)C1 | inconclusive: 0.794 µM [inhibitor, partial curve, poor fit] | –
25 | O=C(c1ccc(Cl)cc1)N1CCC2(CC1)Cc1ccccc1NC2=O | inconclusive: 10 µM [inhibitor, single point] | –
26 | COc1ccc(Cl)cc1NC(=O)N1CC(=O)Nc2sc3c(c2C1c1ccccc1)CCCC3 (configuration not stated) | active: 11.2 µM | –
27 | CN1CC2(CCCN(CC3CC3)C2)c2cc(C(=O)NCCc3ccccc3)ccc21 (configuration not stated) | active: 3.16 µM | –
28 | CCN1CCCCC12Cc1ccccc1CN(C(=O)Cc1ccc(OC)cc1)C2 (configuration not stated) | active: 11.2 µM | –
29 | O=C1[C@@H]2C[C@@H](CN2Cc2nccs2)Oc2ccccc2N1Cc1ccc(OC(F)(F)F)cc1 | inconclusive: 8.91 µM [inhibitor, single point] | –
30 | COCC1CN(S(=O)(=O)c2ccc3c(c2)CCC3)CC12CCNCC2 (configuration not stated) | inconclusive: 7.94 µM [inhibitor, single point] | –
31 | Cc1cnc(C2CC2)n1CCNS(=O)(=O)c1cc(F)cc(F)c1 | inconclusive: 12.6 µM [inhibitor, single point] | –
32 | Cc1cccc(-n2c3nc(=O)[nH]c(=O)c-3cc3c(C)nn(-c4ccccc4)c32)c1C | inconclusive: 17.8 µM [inhibitor, single point] | –
33 | CCOc1cc(=O)n2c(c1C(=O)Nc1ccc(Cl)cc1)CCCC2 | inactive | –
34 | O=C(Nc1ccccc1)c1cn(-c2ccccc2)nc1-c1ccccc1 | inconclusive: 11.2 µM [inhibitor, single point] | –
35 | CC(C)(C)CN1CCOC[C@H]1c1ncc(-c2cccc(Cl)c2)[nH]1 | inconclusive: 15.8 µM [inhibitor, single point] | –
36 | Cc1cc(C)cc(CN2CCC3(Cc4ccccc4CNC3=O)C2)c1 (configuration not stated) | inconclusive: 10 µM [inhibitor, partial curve, poor fit] | –
37 | CCOc1ccc(CC(=O)NC2CCN(c3cc(-c4ccc(OC)cc4)[nH]n3)CC2)cc1 | inconclusive: 0.126 µM [inhibitor, full curve, poor fit] | –
38 | COC[C@@H]1CN(C(=O)c2cccn2C)C[C@H]1c1ccccn1 | inactive | –
39 | CC(=O)c1ccc(NC(=O)Cn2c(-c3ccc(F)cc3)nc(C)cc2=O)cc1 | inconclusive: 11.2 µM [inhibitor, single point] | –
40 | CC[C@H]1CN(C(=O)N2CCOCC2)CC[C@H]1CC(=O)N1CCOCC1 | inconclusive: 5.62 µM [inhibitor, single point] | –
41 | CCC(=O)N1CCN(c2nc3c(s2)CC(C(=O)Nc2ccc(C(C)C)cc2)CC3)CC1 (configuration not stated) | inactive | –
42 | O=C(Nc1cc(F)ccc1F)N1CC(c2noc(-c3ccccc3)n2)C1 | inconclusive: 3.98 µM [inhibitor, partial curve, poor fit] | –
43 | CCN(CC)c1cc(CCC(=O)Nc2ccc(OC)c(OC)c2)ccn1 | inconclusive: 7.08 µM [inhibitor, partial curve] | –
44 | COc1ccc(Nc2ncc3c(n2)CCN(C(=O)OC(C)(C)C)C3)cc1 | active: 5.62 µM | –
45 | Cc1ccc(C(=O)N2CCCCCCNC(=O)CC2)s1 | inconclusive: 20 µM [inhibitor, single point] | –
46 | Cc1ccc(Nc2cc(C(=O)NCc3cccs3)c3ccccc3n2)c(C)c1 | inconclusive: 17.8 µM [inhibitor, single point] | –

Row | Compound | Potency | activity, negative = inhibition
47 | Cc1ccc(NC(=O)c2ccc3[nH]c(C)cc(=O)c3c2)c(C)c1 | inconclusive: 11.2 µM [inhibitor, single point] | –
48 | COc1ccc(Cn2c3c(c(=O)n2Cc2ccccc2)CCN(C(=O)Cc2cccc(Cl)c2)C3)cc1 | inconclusive: 7.08 µM [inhibitor, partial curve] | –
49 | COc1cc2c(cc1OC1CCCC1)NC(=O)C21CCN(c2cnccn2)CC1 | inconclusive: 0.355 µM [inhibitor, full curve, poor fit] | –
50 | COc1ccccc1CNc1ncnc2c1c(-c1ccccc1)cn2-c1cccc(C)c1 | inconclusive: 17.8 µM [inhibitor, single point] | –
51 | Cc1cc(O)c(-c2ccnc3cc(-c4ccccc4)nn23)cc1Cl | inconclusive: 0.501 µM [inhibitor, full curve, poor fit] | –
52 | c1ccc(CN2Cc3[nH]cnc3C[C@H]2c2nc(-c3ccncc3)no2)cc1 | active: 10 µM | –
53 | Cc1[nH]cnc1CN1CCCC(C(=O)Nc2ccc(-c3cccc(F)c3)cc2)C1 (configuration not stated) | active: 10 µM | –
54 | O=Cc1ccc(-c2ccc(C(=O)O)cn2)cc1 | inactive | –
55 | CCc1ccc2c(c1)-c1ccccc1S(=O)(=O)N2CC(=O)N1CCC(C)CC1 | inconclusive: 7.94 µM [inhibitor, partial curve, poor fit] | –
56 | CCn1ccnc1CN(C)C(=O)c1cc(COc2ccc3c(c2)OCO3)[nH]n1 | inactive | –
57 | O=C(NCc1ccc2c(c1)OCO2)C1CN(c2ccc(F)cc2)C(=O)N1 (configuration not stated) | inconclusive: 11.2 µM [inhibitor, partial curve, poor fit] | –
58 | CC(C)CN(CCCNC(=O)c1cn(C)c2ccc(S(=O)(=O)N(C)C3CCCCC3)cc2c1=O)CC(C)C | inconclusive: 17.8 µM [inhibitor, single point] | –
59 | Cc1cc(C(=O)N[C@@H]2CCOC[C@H]2OCC(=O)O)sc1-c1ccccc1 | inactive | –
60 | O=C(Nc1cccnc1)N1CCOC[C@H](Oc2ccccc2)C1 | inactive | –
61 | O=C(CCc1ccc2c(c1)CN(C(=O)CN1CCCC1=O)CCO2)NCC1CC1 | inactive | –
62 | COc1ccc(C(=O)N2CCC3(C2)C(=NC2CCCC2)NC(=O)N3c2cc(F)cc(F)c2)cc1 (configuration not stated) | – | inconclusive: -184% [inhibitor]
63 | CCOc1ccccc1NC(=O)N1CCCCCCNC(=O)[C@@H]2CCCC[C@@H]21 | inconclusive: 14.1 µM [inhibitor, partial curve, poor fit] | –
64 | Cc1nn2c(c1-c1ccccc1Oc1ccccc1)N(C(=O)Cc1ccc(O)cc1)CCC2 | active: 8.91 µM | –
65 | COC[C@@H]1CN(C(=O)c2cccc(F)c2)C[C@H]1C(N)=O | inactive | –
66 | O=C(NCc1ccco1)c1ccc2c(c1)N(Cc1ccccc1F)C(=O)c1ccccc1S2=O (configuration not stated) | inconclusive: 17.8 µM [inhibitor, single point] | –
67 | CC(C)(C)CCN1CC(Oc2cccc(C(=O)N3CCCC3)c2)C1 | inconclusive: 2.24 µM [inhibitor, partial curve, poor fit] | –
